According to PubChem BioAssay (Tox21):
Inconclusive results, whose numbers are uncertain, are shown with a selection of clear calls. For some of these results: No potency is given beside an inconclusive call; the fits are too rough. Where a structure was tested more than once in an assay, its records may differ in their call. Calls of active or inactive are those of the source. Unless noted, calls follow the shape of the dose curve; as a rule, active = well fitted curve in the direction sought with a large enough effect in the repeat runs; inconclusive = weak or mixed curves; inactive = no such curve, though single readings can be large; an effect the other way counts as inactive or inconclusive.

Experiments:
[1] = biological target: Nuclear receptor subfamily 1 group I member 3 (Homo sapiens) (UniProt Q14994); test: qHTS assay to identify small molecule agonists of the constitutive androstane receptor (CAR) signaling pathway (AID 1224839); also: nearly all actives have a fitted effect of over 15% in size; also: potency is read from the fitted curve at half-maximal effect
Method in brief: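 Cells were plated and incubated 4 hrs, then dosed with compounds at 15 concentrations. PK11195 was added to 0.75 uM final. After 24 hrs at 37 C, luciferase luminescence was measured.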

[2] = biological target: Vitamin D3 receptor (Homo sapiens) (UniProt P11473); test: qHTS assay to identify small molecule agonists of the vitamin D receptor (VDR) signaling pathway (AID 743222; calls by dose curve; also: potency is read from the fitted curve at half-maximal effect; as to activation: % is scaled to controls: 0 for no effect and ±100 for the full control effect); settings: HEK293T VDR-UAS-bla, beta-lactamase FRET ratio, 16 h; activation: at 63.5 µM (top of the series) unless noted
Method in brief: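 Using LiveBLAzer B/G FRET detection, agonism was scored in VDR-bla cells exposed overnight (16 h, 37C) to DMSO-dissolved compounds; substrate incubation was 2 h at room temperature.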

[3] = biological target: Androgen receptor (Homo sapiens) (UniProt P10275); test: qHTS assay to identify small molecule antagonists of the androgen receptor (AR) signaling pathway (AID 743035; active = well fitted inhibition curve with a large enough effect in the signal ratio in the repeat runs, not every such curve was filed as active; inconclusive = weak or mixed curves, or effect the other way; inactive = no such curve, though single readings can be large or run the other way; the % refers to the signal ratio; also: potency is read from the fitted curve at half-maximal effect); settings: HEK293 AR-UAS-bla, R1881-stimulated, beta-lactamase FRET, 16 h; activity change, negative = inhibition: at 58.5 µM (top of the series) unless noted
Method in brief: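 R1881 agonist challenge of a HEK293 UAS-beta-lactamase AR reporter line in the presence of compound (16 h, 37C); signal taken as FRET fluorescence after 2 h with LiveBLAzer B/G substrate at room temperature.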

[4] = qHTS assay to identify aromatase inhibitors - cell viability counter screen (AID 743084); settings: MCF-7 aro ERE viability, CellTiter-Fluor, 24 h; activity change, negative = cytotoxicity: at 70.3 µM (top of the series);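 also: cells stimulated with testosterone during compound exposure; nearly all actives have a fitted effect of over 55% in size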; also: potency is read from the fitted curve at half-maximal effect
[5] = qHTS assay to identify small molecule antagonists of the estrogen related receptor (ERR) signaling pathway from Tox21 library (AID 1224848); also: potency is read from the fitted curve at half-maximal effect; nearly all actives have a fitted effect of over 50% in size
Method in brief: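 Tox21 10K compounds in DMSO tested for ERR pathway antagonism in NTP's ERR cell line; 18 h, 37 C exposure; ONE-Glo luminescence.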

[6] = qHTS assay to identify small molecule agonists of the sonic hedgehog signaling (Shh) pathway - cell viability counter screen (AID 1259366); also: nearly all actives have a fitted effect of over 50% in size; also: potency is read from the fitted curve at half-maximal effect
Method in brief: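 Cells are plated at 2,000 per well and left 4hr at 37C, 5% CO2 before compound addition. After 23hr of treatment, CellTiter-Fluor reagent is added for 1hr at 37C and fluorescence is measured.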

[7] = Human pregnane X receptor (PXR) small molecule agonists, qHTS cell viability counter screen (AID 1346977); also: nearly all actives have a fitted effect of over 50% in size; also: potency is read from the fitted curve at half-maximal effect
Method in brief: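 Cytotoxicity counter screen run in the same wells as the PXR luciferase assay, using PXR-Luc HepG2 cells in charcoal-stripped serum medium. Viability: CellTiter-Fluor fluorescence after 24hr compound treatment.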

[8] = Caspase-3/7 induction in HepG2 cells by small molecules, qHTS cell viability counter screen (AID 1346981); also: potency is read from the fitted curve at half-maximal effect; nearly all actives have a fitted effect of over 30% in size
Method in brief: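 Treatment of HepG2 cells with DMSO-delivered compounds ran 16 hr at 37 C following a 5-hr pre-incubation of 2,000 cells/well. CellTiter-Fluor fluorescence, read after 1 hr, served as the viability measure in a qHTS format.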

[9] = A CellTox Green Cytotoxicity Assay to monitor cytotoxicity in HEK293 cells - 16 hour (AID 1224888); also: nearly all actives have a fitted effect of over 35% in size; also: potency is read from the fitted curve at half-maximal effect; as to activity change: % is scaled to controls: 0 for no effect and ±100 for the full control effect
Method in brief: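 Tox21 screen in HEK293: membrane-impermeant cyanine dye fluoresces on binding dead-cell DNA; compound pinned 5 h post-seeding, plates held at 37 C, signal read repeatedly through 40 h.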

[10] = biological target: Peroxisome proliferator-activated receptor delta (Homo sapiens) (UniProt Q03181); test: qHTS assay to identify small molecule agonists of the peroxisome proliferator-activated receptor delta (PPARd) signaling pathway (AID 743212; calls by dose curve;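 also: HEK293H cells with PPARd UAS beta-lactamase reporter GeneBLAzer system; % is scaled to controls: 0 for no effect and ±100 for the full control effect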); settings: HEK293H PPARd-UAS-bla, beta-lactamase FRET ratio, 17 h; activation: at 62.6 µM (top of the series) unless noted
Method in brief: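 Beta-lactamase reporter read by fluorescence (LiveBLAzer B/G FRET, 2 h, room temperature). Test agents, in DMSO, incubated at 37 C with PPARd-bla HEK293H cells.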

[11] = biological target: Thyrotropin receptor (Homo sapiens) (UniProt P16473); test: qHTS assay to identify small molecule antagonists of the thyroid stimulating hormone receptor (TSHR) signaling pathway (AID 1259385; calls by dose curve; also: nearly all actives have a fitted effect of over 20% in size; also: potency is read from the fitted curve at half-maximal effect); settings: TSHR-HEK293 cAMP HTRF, TSH-stimulated antagonist mode; activity change, negative = inhibition: at 92.4 µM (top of the series)
Method in brief: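 TSHR-HEK293 cells were plated and held 18 h at 37C/5% CO2, then given compound plus Ro20-1724 and stimulated with TSH at 1.5 ng/mL final. After 30 min at room temperature, cAMP was detected with cAMP-d2/anti-cAMP-cryptate (1 h) by fluorescence.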

[12] = qHTS RealTime-Glo MT Cell Viability Assay in HepG2 cells - 8 hour (AID 1224873); also: nearly all actives have a fitted effect of over 55% in size; also: potency is read from the fitted curve at half-maximal effect
Method in brief: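 HepG2 cells mixed with RealTime-Glo MT reagents (NanoLuc plus cell-permeant prosubstrate) were seeded at 600 cells/well, incubated 5 h at 37 C/5% CO2, then pinned with compounds in DMSO; nonlytic luminescence tracked viability during 40 h treatment.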

[13] = qHTS assay to identify small molecule antagonists of the sonic hedgehog signaling (Shh) pathway - cell viability counter screen (AID 1259367); also: nearly all actives have a fitted effect of over 55% in size; also: potency is read from the fitted curve at half-maximal effect
Method in brief: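 Conditioned medium drove Shh signaling in 3T3 Gli1-Luc cells exposed to compounds at 37C and 5% CO2. Viability was determined from CellTiter-Fluor fluorescence, with reagent incubated 1 hr after 23 hr of treatment.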

[14] = qHTS assay to identify small molecule antagonists of the androgen receptor (AR) signaling pathway - cell viability counter screen (AID 743033; also: nearly all actives have a fitted effect of over 45% in size; also: potency is read from the fitted curve at half-maximal effect)
[15] = biological target: Aryl hydrocarbon receptor (Homo sapiens) (UniProt P35869); test: qHTS assay to identify small molecule that activate the aryl hydrocarbon receptor (AhR) signaling pathway (AID 743085); also: potency is read from the fitted curve at half-maximal effect; nearly all actives have a fitted effect of over 15% in size
Method in brief: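 Compounds were tested in HepG2 hepatocellular carcinoma cells harbouring a stably integrated luciferase gene under control of 20 DREs. Increased reporter signal after 24 h treatment at 37C was taken as AhR activation.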

[16] = Caspase-3/7 induction in CHO-K1 cells by small molecules, qHTS cell viability counter screen (AID 1346979); also: potency is read from the fitted curve at half-maximal effect; nearly all actives have a fitted effect of over 35% in size
Method in brief: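 Cytotoxicity counter screen run in parallel with the caspase-3/7 assay: CHO-K1 cells, 16hr compound treatment at 37C, then CellTiter-Fluor for 1hr before fluorescence reading.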

[17] = qHTS assay to identify small molecule antagonists of the estrogen receptor alpha (ER-alpha) signaling pathway using the BG1 cell line (AID 743080; calls by dose curve;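 also: BG1 cells stimulated with 17beta-estradiol alongside compound; nearly all actives have a fitted effect of over 25% in size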; also: potency is read from the fitted curve at half-maximal effect); settings: BG1Luc4E2 ERE-luciferase antagonist mode, luminescence; activity change, negative = inhibition: at 70.3 µM (top of the series) unless noted
Method in brief: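 After 5 days in phenol-red-free 10% charcoal-stripped FBS medium, BG1-Luc-4E2 cells were seeded, left 24 h at 37 C, co-treated with compounds and 17beta-estradiol for 21.5 h, then assayed for viability and luciferase.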

[18] = biological target: Estrogen receptor (Homo sapiens) (UniProt P03372); test: qHTS assay to identify small molecule antagonists of the estrogen receptor alpha (ER-alpha) signaling pathway (AID 743069; active = well fitted curve in the direction sought with a large enough effect in the signal ratio in the repeat runs, not every such curve was filed as active; inconclusive = weak or mixed curves, or effect the other way; inactive = no such curve, though single readings can be large or run the other way; the % refers to the signal ratio; also: % is scaled to controls: 0 for no effect and ±100 for the full control effect); settings: HEK293 ER-alpha-UAS-bla, beta-lactamase ratio, antagonist mode; activity, negative = inhibition: at 69.4 µM (top of the series) unless noted
Method in brief: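 A 17beta-estradiol challenge was applied right after compound transfer to ER-alpha-UAS-bla HEK293 cells previously kept in charcoal-stripped serum. Plates stood 18 hr at 37C and 5% CO2; fluorescence was read following 2 hr FRET substrate loading at room temperature.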

[19] = qHTS assay to identify small molecule antagonists of the estrogen related receptor signaling pathway with the pleiotropic PPARgamma coactivator (PGC) from Tox21 10K library (AID 1224841; call rule not given here; also: potency is read from the fitted curve at half-maximal effect; actives are mostly falling curves and most rising ones were filed inactive; nearly all actives have a fitted effect of over 50% in size)
Method in brief: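 Test chemicals dissolved in DMSO were applied to pre-incubated (6 h) PGC/ERR cells at 2,000 cells/well for an 18 h, 37 C treatment; reporter luminescence was then read using One-Glo.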

[20] = qHTS assay to identify small molecule agonists of the peroxisome proliferator-activated receptor delta (PPARd) signaling pathway - cell viability counter screen (AID 743211); settings: PPARd-bla HEK293H viability, CellTiter-Glo luminescence, 17 h; activity change, negative = cytotoxicity: at 62.6 µM (top of the series); also: potency is read from the fitted curve at half-maximal effect; nearly all actives have a fitted effect of over 55% in size
Method in brief: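 Counter screen for cytotoxicity run in parallel with the PPARd reporter screen. Beta-lactamase reporter HEK293H cells exposed to compounds 17 h; ATP-based CellTiter-Glo luminescence quantified viability.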
Tags tell the direction and shape of the fitted curve or compound fluorescence and quenching.

Chain of UniProt P10275 (P10275 whole entry, looked up): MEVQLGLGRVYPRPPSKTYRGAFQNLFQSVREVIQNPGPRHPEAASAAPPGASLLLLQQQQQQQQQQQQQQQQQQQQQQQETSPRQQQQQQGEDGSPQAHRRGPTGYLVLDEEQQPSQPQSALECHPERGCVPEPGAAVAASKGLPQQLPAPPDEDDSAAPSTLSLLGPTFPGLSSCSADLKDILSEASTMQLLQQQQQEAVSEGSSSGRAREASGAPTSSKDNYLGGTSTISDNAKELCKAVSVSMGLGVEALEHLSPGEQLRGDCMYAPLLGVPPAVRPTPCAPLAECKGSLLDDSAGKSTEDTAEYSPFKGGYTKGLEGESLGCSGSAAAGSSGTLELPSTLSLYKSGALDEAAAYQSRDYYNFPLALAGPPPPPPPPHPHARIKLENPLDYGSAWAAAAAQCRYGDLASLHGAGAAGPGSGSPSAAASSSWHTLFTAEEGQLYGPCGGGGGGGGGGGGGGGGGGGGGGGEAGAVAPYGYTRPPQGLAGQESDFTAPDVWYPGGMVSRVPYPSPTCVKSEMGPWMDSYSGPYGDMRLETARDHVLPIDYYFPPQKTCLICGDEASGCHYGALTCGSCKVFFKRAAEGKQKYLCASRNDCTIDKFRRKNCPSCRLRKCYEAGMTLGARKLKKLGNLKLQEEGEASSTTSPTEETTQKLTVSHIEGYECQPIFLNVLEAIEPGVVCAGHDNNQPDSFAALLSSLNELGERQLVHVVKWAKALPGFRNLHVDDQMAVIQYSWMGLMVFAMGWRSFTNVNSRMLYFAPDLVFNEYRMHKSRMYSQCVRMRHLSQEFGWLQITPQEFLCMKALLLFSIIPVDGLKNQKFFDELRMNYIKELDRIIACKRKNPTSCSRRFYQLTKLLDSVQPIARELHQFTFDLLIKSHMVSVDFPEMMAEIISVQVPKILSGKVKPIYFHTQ
Chain of UniProt P16473 (P16473 whole entry, looked up): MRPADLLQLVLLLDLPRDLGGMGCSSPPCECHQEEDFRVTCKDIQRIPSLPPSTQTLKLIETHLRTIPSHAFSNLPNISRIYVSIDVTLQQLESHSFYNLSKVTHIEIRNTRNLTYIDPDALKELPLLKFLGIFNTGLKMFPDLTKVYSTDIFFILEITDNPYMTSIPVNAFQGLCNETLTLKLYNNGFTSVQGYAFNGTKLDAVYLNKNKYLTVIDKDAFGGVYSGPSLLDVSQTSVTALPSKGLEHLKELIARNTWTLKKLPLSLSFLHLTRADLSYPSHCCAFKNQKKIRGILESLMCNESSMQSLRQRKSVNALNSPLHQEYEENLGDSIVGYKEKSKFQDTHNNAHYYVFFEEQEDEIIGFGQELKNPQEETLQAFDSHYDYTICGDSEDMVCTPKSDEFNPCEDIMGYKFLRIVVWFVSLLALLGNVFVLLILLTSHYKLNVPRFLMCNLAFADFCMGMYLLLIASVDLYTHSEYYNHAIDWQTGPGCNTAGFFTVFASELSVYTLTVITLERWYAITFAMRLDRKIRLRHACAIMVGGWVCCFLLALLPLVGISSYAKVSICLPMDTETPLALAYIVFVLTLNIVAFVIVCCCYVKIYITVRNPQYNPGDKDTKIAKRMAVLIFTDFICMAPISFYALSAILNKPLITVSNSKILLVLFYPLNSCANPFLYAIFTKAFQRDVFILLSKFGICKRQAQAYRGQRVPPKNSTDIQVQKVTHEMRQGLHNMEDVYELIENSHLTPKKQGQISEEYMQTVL
Chain of UniProt Q03181 (Q03181 whole entry, looked up): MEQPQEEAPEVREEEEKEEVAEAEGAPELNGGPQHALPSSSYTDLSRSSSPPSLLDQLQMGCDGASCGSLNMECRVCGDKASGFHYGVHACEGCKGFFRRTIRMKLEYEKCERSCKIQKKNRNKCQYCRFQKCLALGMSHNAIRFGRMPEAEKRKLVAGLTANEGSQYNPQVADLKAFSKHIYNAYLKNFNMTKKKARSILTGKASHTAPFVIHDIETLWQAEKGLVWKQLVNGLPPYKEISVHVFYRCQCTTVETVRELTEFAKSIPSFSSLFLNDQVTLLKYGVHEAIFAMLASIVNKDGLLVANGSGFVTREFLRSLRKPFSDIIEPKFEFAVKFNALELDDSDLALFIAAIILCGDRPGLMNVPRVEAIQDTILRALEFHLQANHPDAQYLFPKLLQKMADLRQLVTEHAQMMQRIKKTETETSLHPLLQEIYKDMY
Chain of UniProt Q14994 (Q14994 whole entry, looked up): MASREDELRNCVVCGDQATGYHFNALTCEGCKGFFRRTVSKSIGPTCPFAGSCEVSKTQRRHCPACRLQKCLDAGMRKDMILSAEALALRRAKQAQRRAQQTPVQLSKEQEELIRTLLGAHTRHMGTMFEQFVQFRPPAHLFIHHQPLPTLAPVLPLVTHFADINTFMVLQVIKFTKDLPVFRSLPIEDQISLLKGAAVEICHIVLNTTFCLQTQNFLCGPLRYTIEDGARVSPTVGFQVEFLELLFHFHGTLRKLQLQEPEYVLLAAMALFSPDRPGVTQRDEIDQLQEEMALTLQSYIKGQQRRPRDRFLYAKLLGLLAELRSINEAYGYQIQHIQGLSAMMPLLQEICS
Chain of UniProt P11473 (P11473 whole entry, looked up): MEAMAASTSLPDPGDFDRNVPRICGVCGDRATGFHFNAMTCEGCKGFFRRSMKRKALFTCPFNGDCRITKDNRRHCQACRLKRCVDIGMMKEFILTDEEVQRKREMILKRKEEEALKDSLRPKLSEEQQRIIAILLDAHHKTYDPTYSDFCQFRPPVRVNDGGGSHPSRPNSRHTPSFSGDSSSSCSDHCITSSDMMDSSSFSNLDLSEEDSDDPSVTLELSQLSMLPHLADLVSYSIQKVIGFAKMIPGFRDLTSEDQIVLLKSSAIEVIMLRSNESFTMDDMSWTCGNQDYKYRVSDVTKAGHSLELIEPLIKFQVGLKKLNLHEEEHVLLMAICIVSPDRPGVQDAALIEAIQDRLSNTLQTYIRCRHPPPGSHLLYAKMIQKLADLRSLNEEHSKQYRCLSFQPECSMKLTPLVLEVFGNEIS
Chain of UniProt P35869 (P35869 whole entry, looked up): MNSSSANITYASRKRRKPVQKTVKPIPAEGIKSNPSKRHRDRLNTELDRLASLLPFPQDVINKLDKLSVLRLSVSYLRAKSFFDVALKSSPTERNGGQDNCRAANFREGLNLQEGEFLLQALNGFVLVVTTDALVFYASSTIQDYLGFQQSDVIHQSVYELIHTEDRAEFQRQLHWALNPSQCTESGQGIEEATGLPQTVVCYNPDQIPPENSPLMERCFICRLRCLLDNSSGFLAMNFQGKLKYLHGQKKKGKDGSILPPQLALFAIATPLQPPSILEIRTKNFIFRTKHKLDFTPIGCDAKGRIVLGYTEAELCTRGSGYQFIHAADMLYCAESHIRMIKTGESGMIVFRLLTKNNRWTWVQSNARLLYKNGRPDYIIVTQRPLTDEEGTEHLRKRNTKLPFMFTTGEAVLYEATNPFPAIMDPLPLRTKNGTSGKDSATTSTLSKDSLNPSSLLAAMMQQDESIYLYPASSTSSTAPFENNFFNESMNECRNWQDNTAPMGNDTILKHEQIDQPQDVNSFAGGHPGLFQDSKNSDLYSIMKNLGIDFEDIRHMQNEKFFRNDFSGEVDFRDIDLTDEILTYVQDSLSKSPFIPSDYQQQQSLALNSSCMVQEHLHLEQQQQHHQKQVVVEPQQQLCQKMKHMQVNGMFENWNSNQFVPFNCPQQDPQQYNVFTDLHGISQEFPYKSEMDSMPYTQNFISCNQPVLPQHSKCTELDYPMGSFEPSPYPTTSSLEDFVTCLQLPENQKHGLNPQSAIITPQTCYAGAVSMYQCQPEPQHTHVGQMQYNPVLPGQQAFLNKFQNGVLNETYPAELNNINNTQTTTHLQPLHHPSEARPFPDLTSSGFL
Chain of UniProt P03372 (P03372 whole entry, looked up): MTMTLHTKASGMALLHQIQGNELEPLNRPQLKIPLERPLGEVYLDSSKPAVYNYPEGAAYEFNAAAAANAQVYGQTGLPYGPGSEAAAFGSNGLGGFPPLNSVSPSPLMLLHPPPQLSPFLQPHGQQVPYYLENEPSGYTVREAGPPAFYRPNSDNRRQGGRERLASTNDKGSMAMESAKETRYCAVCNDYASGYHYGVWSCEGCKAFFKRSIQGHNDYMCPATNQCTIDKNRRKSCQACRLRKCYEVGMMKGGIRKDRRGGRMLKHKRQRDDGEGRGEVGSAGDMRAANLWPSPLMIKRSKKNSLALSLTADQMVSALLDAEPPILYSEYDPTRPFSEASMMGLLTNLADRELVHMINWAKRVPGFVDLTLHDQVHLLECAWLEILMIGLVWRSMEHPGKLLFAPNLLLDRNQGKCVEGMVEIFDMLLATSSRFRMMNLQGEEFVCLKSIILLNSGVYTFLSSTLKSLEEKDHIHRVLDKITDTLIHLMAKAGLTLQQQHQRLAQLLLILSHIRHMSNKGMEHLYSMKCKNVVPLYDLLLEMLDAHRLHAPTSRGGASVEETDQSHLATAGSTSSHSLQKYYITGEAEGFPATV

Compound: c1ccc2c(c1)Oc1ccccc1O2
- Potency [1]: inconclusive [activator, partial curve, poor fit]

Compound: ClC(Cl)(Cl)Br
- Potency [2]: inactive

Compound: Nc1c(Br)cc([N+](=O)[O-])cc1[N+](=O)[O-]
- Potency [3]: inconclusive [falling, full curve]
- Potency [4]: inconclusive [cytotoxic, partial curve]
- Potency [1]: inconclusive [activator, partial curve]
- Potency [5]: inconclusive [inhibitor, partial curve]
- Potency [6]: inconclusive [cytotoxic, partial curve, poor fit]
- Potency [7]: inconclusive [cytotoxic, partial curve, poor fit]
- Potency [8]: inconclusive [cytotoxic]

Compound: CNC(=O)O/N=C(\C)SC
- Potency [9]: inactive

Compound: ClC(Br)Br
- Potency [1]: inactive

Compound: [N-]=[N+]=CC(=O)OC[C@H](N)C(=O)O
- Potency [10]: inactive
- Potency [9]: inconclusive [activator, partial curve, poor fit]

Compound: O=CC=O
- Potency [3]: inactive
- Potency [11]: inactive

Compound: [Cl-].[Cl-].[Cl-].[Yb+3]
- Potency [12]: inactive
- Potency [6]: inconclusive [rising, partial curve]
- Potency [13]: inconclusive [rising, partial curve]

Compound: COc1ccc(C(=O)c2c(C)n(CCN3CCOCC3)c3ccccc23)cc1
- Potency [14]: inconclusive [cytotoxic, partial curve, poor fit]
- Potency [15]: inconclusive [activator, partial curve, poor fit]
- Potency [5]: inconclusive [inhibitor, partial curve]
- Potency [6]: inconclusive [cytotoxic, partial curve, poor fit]
- Potency [13]: inconclusive [cytotoxic, partial curve, poor fit]
- Potency [11]: inconclusive [partial curve]
- Potency [16]: inconclusive [cytotoxic, partial curve]
- Potency [8]: inconclusive [cytotoxic, partial curve]

Compound: CC(C)=CCN1CC[C@@]2(C)c3cc(O)ccc3C[C@@H]1[C@@H]2C
- activity change, negative = inhibition [17]: inconclusive: -13.7%
- Potency [11]: inactive

Compound: O=C(CCCCl)c1ccc(F)cc1
- Potency [1]: inconclusive [activator, partial curve, poor fit]
- Potency [6]: inactive

Compound: C=CC1CC=CCC1 (configuration not stated)
- Potency [14]: inactive
- Potency [18]: inactive
- Potency [10]: inactive

Compound: C=CCSSCC=C
- Potency [13]: inactive

Compound: c1ccc2c(c1)oc1ccccc12
- Potency [7]: inactive

Compound: O=C(Nc1ccccc1)N(Cc1ccc(Cl)cc1)C1CCCC1
- Potency [19]: inconclusive [falling, single point]
- Potency [12]: inconclusive [falling, partial curve, poor fit]
- Potency [6]: inconclusive [cytotoxic]
- Potency [13]: inconclusive [cytotoxic, partial curve]
- Potency [16]: inconclusive [cytotoxic, single point]
- Potency [8]: inconclusive [cytotoxic, single point]

Compound: CCOP(=S)(OCC)Oc1cnc2ccccc2n1
- Potency [1]: active: 30.6 µM
- Potency [12]: inactive
- Potency [16]: inconclusive [cytotoxic, single point]

Compound: CCOC(=O)N(C)N=O
- Potency [4]: inactive

Compound: c1ccc2nc(N3CCNCC3)ccc2c1
- Potency [17]: inconclusive [falling, single point]
- Potency [20]: inconclusive [cytotoxic, partial curve, poor fit]
- Potency [2]: inconclusive [activator, single point]
- Potency [6]: inconclusive [cytotoxic, partial curve]

Compound: CNC(=O)N(C)c1nc2ccccc2s1
- Potency [3]: inconclusive [rising, partial curve, poor fit]
- Potency [15]: active: 27.3 µM

Compound: CNC(=O)Oc1c(C(C)(C)C)cc(C)cc1C(C)(C)C
- Potency [13]: inactive
